# Measured values: the supplement of paper PMC3334620
# Whole data set: some 33,000 sequences, median “E-score (-0.5 to 0.5)” near -0.01, cut for the highest 2% near 0.26. The list shows a part of the results.
# Target: Ste12 (UniProt P13574)
# Experiment: PBM E-score (8-mer binding enrichment) (E-score (-0.5 to 0.5)); higher = stronger / more preferred TF binding; most listed sequences are background and not binding sites
# Conditions: protein concentration: 200 nM; construct: GST-DNA-binding domain
# Summary of the method: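 Detection of bound protein used fluorescent anti-GST, with scans normalised by masliner. The proteins were GST-tagged yeast transcription factors applied at about 100-200 nM to universal all-10-mer Agilent arrays made double-stranded by primer extension. Each ungapped eight-base word, pooled with its reverse complement, was scored with an E-score from the Universal PBM Analysis Suite.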
row,Sequence,PBM E-score
1,AACCTTGG,-0.0674
2,CGCATTAA,0.144
3,TCTCTAAA,0.0533
4,GCACGCCA,-0.201
5,ATTGTTCG,0.0992
6,CAACCGAG,-0.0341
7,GCTCGAAA,0.0428
8,GCGGCGCC,0.151
9,ATCTCCTG,0.0702
10,GACCTCAA,0.0245
11,CAGCGAAG,-0.0903
12,CCCACCGC,0.0836
13,TATTCGCA,0.117
14,CGAACAAA,0.242
15,CTTTTCGA,0.242
16,GTATCGAA,0.149
17,CTTCACGA,-0.252
18,AGTATCGC,-0.0098
19,AAAGAACT,0.0118
20,GCATGGTA,-0.00394
21,CCATATGA,0.0986
22,ATAGAGGC,-0.161
23,ATTCAGGA,0.0603
24,GTGGCCAC,-0.095

row,Sequence,PBM E-score
1,AGCGTTGA,-0.0266
2,GACGGTGC,-0.153
3,GAGGCAAA,0.103
4,CGATGATC,-0.179
5,ATGTCACG,0.144
6,AGGGAGGC,-0.122
7,ACTCGCGG,0.0459
8,AAGACGAG,-0.11
9,AGTCGATG,0.0443
10,AAGCCAGT,-0.0914
11,ACTACACT,-0.0466
12,ACGATAAC,0.0678
13,ATCGCTCG,-0.0129
14,ACTGGAAC,-0.0203
15,TTTATAAA,0.271
16,AATCCCTG,-0.0793
17,ATGAGGTG,-0.144
18,TGGACACA,-0.15
19,GCAGGGTA,-0.0837
20,GCAGAGAC,-0.275
21,GAGTACGC,-0.241
22,TTGAGCAA,-0.0301
23,CAGACCAC,-0.0292
24,TACCGAGA,0.00779

row,Sequence,PBM E-score
1,AAGCCCCG,0.0304
2,AATTTGAC,0.0583
3,GACTCAGA,0.0539
4,ATTATAAA,0.232
5,CCTAGCGA,-0.317
6,GAGGTTGA,-0.0361
7,CGGTTAAA,0.0788
8,ACTGCATC,0.0193
9,CAGGCTTA,-0.0818
10,TCCGTAGA,-0.0981
11,TAAACCTA,0.0716
12,AGCGAACC,-0.133
13,AGGTCACT,-0.163
14,ACGGTAGG,-0.12
15,AGTGGAAC,-0.00784
16,CTGGGTAC,0.0125
17,AGGCTAGA,-0.214
18,CTGTCTGC,-0.23
19,CCTTCTAG,-0.24
20,ACCAGTAC,-0.11
21,ACTAGGCT,-0.0261
22,CACGCACC,-0.206
23,ACGGTTGG,-0.189
24,CTCAACCA,-0.0786

row,Sequence,PBM E-score
1,CGACCCCA,-0.0172
2,CGATAGCA,-0.0889
3,ATGATCTA,-0.0676
4,CTCATCAA,-0.0459
5,AGGGCGCC,-0.0555
6,CATACGGC,0.0599
7,GATATAGA,0.0812
8,AATCATCC,0.114
9,AAACCGTA,0.0285
10,ATTCGCTA,-0.176
11,CAGGCTCC,-0.0569
12,AACAAAAT,0.11
13,AACCTACC,0.213
14,AACCATCC,0.0272
15,AATGAACG,0.00852
16,AATACGAG,-0.0635
17,CTTCTTAC,-0.0494
18,AAAGCTGT,-0.0617
19,GCCAATAA,0.148
20,ACTAAGTC,-0.0994
21,TATAAAGA,0.0307
22,CCCGGCCC,-0.0346
